Source: article PMC4336329 (PLoS ONE, 2015)
In all, about 310,000 compounds went through this assay and about 2,200 (0.71%) showed an effect of 50% or more. Effects have a minus sign here. The list shows a part of the results.

Target: human ether-à-go-go-related gene (hERG) potassium channel (human, UniProt Q12809)
Assay: primary screen, population patch clamp on CHO cells stably expressing hERG

Chain of human ether-à-go-go-related gene (hERG) potassium channel (Q12809 whole entry, looked up): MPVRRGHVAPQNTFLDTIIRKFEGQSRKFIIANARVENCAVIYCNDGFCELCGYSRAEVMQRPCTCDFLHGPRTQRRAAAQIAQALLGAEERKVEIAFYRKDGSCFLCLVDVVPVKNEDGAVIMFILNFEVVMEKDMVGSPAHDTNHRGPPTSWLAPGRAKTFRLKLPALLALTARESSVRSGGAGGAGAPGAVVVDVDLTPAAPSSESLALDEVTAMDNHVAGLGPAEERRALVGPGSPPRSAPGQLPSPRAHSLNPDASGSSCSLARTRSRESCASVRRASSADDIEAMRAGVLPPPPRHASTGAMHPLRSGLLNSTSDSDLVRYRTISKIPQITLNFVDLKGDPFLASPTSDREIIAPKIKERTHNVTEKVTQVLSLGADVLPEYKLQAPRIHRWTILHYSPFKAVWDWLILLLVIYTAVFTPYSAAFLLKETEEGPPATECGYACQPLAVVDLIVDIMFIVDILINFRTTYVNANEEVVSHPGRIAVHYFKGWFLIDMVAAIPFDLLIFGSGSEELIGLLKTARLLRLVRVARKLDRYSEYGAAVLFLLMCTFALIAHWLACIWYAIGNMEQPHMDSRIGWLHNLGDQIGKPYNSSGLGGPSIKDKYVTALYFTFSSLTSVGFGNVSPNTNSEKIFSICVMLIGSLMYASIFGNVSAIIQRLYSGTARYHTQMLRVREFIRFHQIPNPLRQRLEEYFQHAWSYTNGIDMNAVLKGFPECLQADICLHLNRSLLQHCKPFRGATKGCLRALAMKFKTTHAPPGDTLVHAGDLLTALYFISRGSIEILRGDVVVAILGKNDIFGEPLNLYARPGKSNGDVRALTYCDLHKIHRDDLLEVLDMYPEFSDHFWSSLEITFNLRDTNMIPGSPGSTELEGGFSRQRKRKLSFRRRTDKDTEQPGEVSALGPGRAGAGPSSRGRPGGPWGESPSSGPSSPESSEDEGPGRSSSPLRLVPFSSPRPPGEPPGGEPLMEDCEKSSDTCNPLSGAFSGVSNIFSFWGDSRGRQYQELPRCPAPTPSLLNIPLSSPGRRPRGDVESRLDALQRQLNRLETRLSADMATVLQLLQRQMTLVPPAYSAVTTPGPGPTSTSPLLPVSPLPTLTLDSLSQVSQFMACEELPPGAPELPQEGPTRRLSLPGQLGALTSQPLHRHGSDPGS

In order of falling “hERG current change (%, negative = inhibition) at 1uM” value:
1. CCCNc1nc(-c2cc(-c3ccc(Cl)cc3)on2)cc(C(C)C)n1  20.5%
2. CC1(C)CC(=O)C=C(NNC(=O)c2cccnc2)C1  18%
3. CSc1ccccc1NC(=O)c1ccc(N2CC3CC(C2)c2cccc(=O)n2C3)c(NC(=O)c2ccncc2)c1 (stereo not shown)  18%
4. Cc1cc(NC(=O)/C=C/c2ccccc2Cl)n(-c2nc3ccccc3[nH]2)n1  17.6%
5. O=C(CCCC(=O)NNC(=O)Nc1ccccc1)NNC(=O)Nc1ccccc1  17%
6. O=C(O)C1=C[C@@H](c2ccc3c(c2)OCO3)C[C@@H](OCCCCO)O1  17%
7. CC(=O)O[C@H]1C(=O)[C@@]2(C)C([C@H](OC(=O)c3ccccc3)[C@]3(O)C[C@H](OC(=O)[C@H](O)[C@@H](NC(=O)Cc4ccccc4)c4ccccc4)C(C)=C1C3(C)C)[C@]1(OC(C)=O)CO[C@@H]1C[C@@H]2O (stereo partly shown)  16.9%
8. O=C(Nc1ccc(Oc2ccc(Cl)cc2)c(Cl)c1)c1cc(I)cc(I)c1O  15.4%
9. CC1CN(C(=O)Cn2c(=O)oc3ccccc32)CC(C)O1 (stereo not shown)  15.3%
10. Cc1ccc2oc(C(=O)N3CCN(CCO)CC3)c(C)c2c1  14.6%
11. COC(=O)c1sccc1NC(=O)c1cccs1  14.6%
12. O=C(COC(=O)CCc1ccccc1)NC1CCS(=O)(=O)C1 (stereo not shown)  14%
13. O=C(Nc1cccc(F)c1)c1ccc2ncsc2c1  13.9%
14. COc1cc(OC)c(NC(=O)c2cc(S(=O)(=O)N3CCOCC3)cn2C)cc1Cl  13.3%
15. O=Cc1ccc(OCc2ccc3ccccc3c2)cc1  12.6%
16. CC1CCN(C(=O)c2cc(Cl)nc3ccccc23)CC1  12.4%
17. CCN(CC)c1ccc(/C=N/NC(=O)c2nnn(-c3nonc3N)c2C(C)C)c(O)c1  12.1%
18. FC(F)(F)c1cccc(/C=N/NC(=S)NC2CCCCC2)c1  12.1%
19. CCOc1cc(C=O)ccc1OCCSc1ccc(Cl)cc1  12.1%
20. CCc1ccc2nc(SCC(=O)N3CC(=O)Nc4ccccc43)c(C#N)cc2c1  12%
21. O=c1[nH]nc(-c2ccc(F)cc2)cc1Cc1ccccc1  11.8%
22. O=C1NC(=Nc2ccc(Cl)cc2)/C(=C/c2ccco2)S1  11.7%
23. Cc1cc2nnc(SCC(=O)Nc3cccc(S(=O)(=O)N4CCOCC4)c3)n2c2ccccc12  11.6%
24. CCOC(=O)c1c(NC(=O)CN2C(=O)NC3(CCCCC3C)C2=O)sc(C)c1C (stereo not shown)  11.5%
25. COc1ccc(CCN2C(=O)CSC2=S)cc1OC  11.5%
26. COc1cccc(OC)c1C(=O)NC(=O)Oc1c(F)cccc1F  11.2%
27. CSCC[C@H](NC(=O)Nc1ccc(S(N)(=O)=O)cc1)C(=O)O  10.7%
28. Cc1cccc(-c2cc(C(=O)N3CCCc4ccccc43)c3ccccc3n2)c1  10.5%
29. CCOC(=O)c1ccccc1NS(=O)(=O)c1ccccc1F  10.4%
30. CC(C)c1ccc(NC(=O)c2cccnc2)cc1  10.4%
31. O=C1C=C(c2cccs2)CC(c2cccs2)C1n1cnc([N+](=O)[O-])c1 (stereo not shown)  10.3%
32. CCn1ccc(C(=O)Oc2ccc(C(C)C)cc2)n1  10.2%
33. CCOC(=O)N1CCN(S(=O)(=O)N2CCCC(C(=O)NCCc3ccc(Cl)cc3)C2)CC1 (stereo not shown)  10.2%
34. COc1ccc(Nc2cc(C(=O)NCc3ccco3)c3ccccc3n2)cc1  9.95%
35. Cc1ccc(CN2CCC(CO)(CC3CCCCO3)CC2)o1 (stereo not shown)  9.94%
36. CC(=O)N1CCC(=NNC(=O)c2cc3ccccc3cc2O)CC1  9.89%
37. CC(=O)c1ccc(NC(=O)CN2C(=O)COc3ccc(Cl)cc32)cc1  9.54%
38. CCSc1nc(=S)n(Cc2ccccc2)c(C)c1C(C)=O  9.28%
39. CC(C)(C)C(=O)c1sc(Nc2ccccc2)nc1N  9.05%
40. COc1ccc(C(=O)/C=C/c2ccccc2)c(OC)c1  8.99%
41. COc1ccc(-c2ccc(=O)n(Cc3cccc([N+](=O)[O-])c3)n2)cc1  8.51%
42. O=C(O)Cc1ccc(NC(=O)Nc2cccc3ccccc23)cc1  8.27%
43. COC(=O)c1cc(S(=O)(=O)NCc2ccc3c(c2)OCO3)cn1C  8.21%
44. Cc1cccc(OCC(=O)N/N=C/CC(C)c2ccccc2)c1C (stereo not shown)  8%
45. CCOC(=O)c1sc(NC(=O)CSc2nc3c(cc2C#N)CCCCC3)c(C#N)c1C  7.55%
46. CCc1cc[n+](C2=C([O-])c3ccccc3C(=O)/C2=N\S(=O)(=O)c2cccs2)cc1  7.52%
47. CCN(CC)C1=CC(=O)OC12CCCCC2  7.37%
48. CC(=O)Nc1ccc(Nc2c([N+](=O)[O-])c(=O)n(-c3ccccc3)c3ccccc23)cc1  7.01%
49. COc1ccc(/C=C/c2ccc3c(Br)ccc(O)c3n2)cc1  6.95%
50. CCOc1ccc2nc(-c3ccccc3)[nH]c2c1  6.79%
51. COc1cccc(Nc2ncnc3ccccc23)c1.Cl  6.61%
52. O=C(COc1ccccc1)NCC(=O)N/N=C/c1cccs1  6.35%
53. Cc1ccc(-c2nnc(N(C)C(=O)c3cccnc3)s2)cn1  6.03%
54. CCN1CCN(C(=O)CSc2cc(=O)n(CC)c3ccccc23)CC1  5.76%
55. CCn1ncc(NC(=O)Nc2cccc(C(F)(F)F)c2)c1C(N)=O  5.39%
56. CCCC(=O)OC(C(=O)Nc1cc(C(F)(F)F)ccc1Cl)c1ccccc1 (stereo not shown)  5.1%
57. Cc1cc(/C=C2\C(=O)NC(=O)N(c3ccc(Cl)cc3)C2=O)c(C)n1-c1sc2c(c1C#N)CCCC2  5.09%
58. CN(C)CCNC(=O)C1CCN(S(=O)(=O)c2ccc3ccccc3c2)CC1  4.97%
59. O=C(CCn1cccc1)Nc1nccs1  4.25%
60. O=C(COC(=O)c1ccc(S(=O)(=O)NCc2ccco2)cc1)Nc1ccc(OC(F)F)cc1  4.14%
61. NS(=O)(=O)c1ccc(CCNC(=O)CN2CCN(c3ccc(F)cc3)CC2)cc1  4.09%
62. Br.c1ccc(-c2csc(NNC3=NCCCCC3)n2)cc1  4.09%
63. CN(C)C(=O)Oc1cccc(-c2cn3cc(Cl)ccc3n2)c1  4.07%
64. CCNC(=O)NC(=O)CSc1nc2ccccc2n1CCOC  3.95%
65. COC(=O)C1=C(N)Oc2cc(C)n(CC3CCCO3)c(=O)c2C1c1ccc(Cl)c(Cl)c1 (stereo not shown)  3.93%
66. Cn1c(O)c(C=NC2CCN(Cc3ccccc3)CC2)c(=O)n(C)c1=O  3.17%
67. CC(C)CNC(=O)c1c(N)n(Cc2ccco2)c2nc3ccccc3nc12  2.83%
68. Cc1c(N)c(C)c([N+](=O)[O-])c(C)c1[N+](=O)[O-]  2.23%
69. Cc1ccccc1NC(=S)N(CCN1CCCCCC1)Cc1cccs1  2.2%
70. COCCN1CC(=O)N2C(c3cccc(C)c3)c3[nH]c4ccccc4c3C[C@H]2C1=O (stereo partly shown)  1.07%
71. CCOC(=O)C1CCN(c2nc(-c3ccc(Br)cc3)nc3ccccc23)CC1  0.984%
72. O=C(NC1CCCC1)c1cnn2c(C(F)(F)F)cc(-c3ccco3)nc12  0.247%
73. COC(=O)c1c(C)[nH]c(C)c1-c1ccccc1Cl  0.136%
74. Cc1cccc(C(=O)Nc2c(C(=O)N3CCN(C)CC3)cnn2-c2ccccc2)c1  -0.113%
75. C=CCN1C(=O)NC2(CCCCC2)C1=O  -1.46%
76. COc1nc(N=C(N)N)nc2ccc(C)cc12  -3.96%
77. C[C@@H](C(=O)NCCc1ccccc1F)N1C(=O)N2CCc3c([nH]c4ccccc34)[C@@]2(C)C1=O  -4.43%
78. C/C(=N\NC(=O)CNc1ccccc1)c1ccccc1  -4.44%
79. O=C(Nc1ccccc1C(F)(F)F)c1cc(S(=O)(=O)N2CCOCC2)ccc1F  -4.51%
80. Cc1ccc(C(=O)N/N=C(\CC(C)C)c2ccccc2)cc1  -5.55%
81. O=S(=O)(/N=C(/c1ccccc1)N1CCCCCC1)c1ccccc1  -5.59%
82. O=C(Nc1ccnn1C1CCN(Cc2ccccc2F)CC1)C1CCCC1  -6.15%
83. Cc1cccn2cc(-c3ccc(F)cc3)nc12  -6.72%
84. Cc1ccc(NC(=O)CCC(=O)c2cc(C)sc2C)nc1  -7.44%
85. N#C/C(=C\c1cccc([N+](=O)[O-])c1)C(=O)NCc1cccnc1  -9.73%
86. CCCCCC(=O)N1CC2(CC(c3cccc(NC(=O)COc4ccc(Cl)cc4)c3)=NO2)C[C@@H]1C(N)=O (stereo partly shown)  -22.3%
87. COc1ccc(-c2cc(C(=O)NCCCN3CCCC3=O)c3ccccc3n2)cc1OC  -33.2%
88. COCCn1nnnc1C(c1ccc(OC)cc1OC)N1CCN(c2ccccc2)CC1 (stereo not shown)  -54.1%
